# Data: article PMC12040169 (PLOS Biology, 2025)
# The list shows a part of the results.
# System: T1, C. trachomatis L2/434/Bu expressing GFP (CTL2-GFP)
# T1 construct: L2/434/Bu GFP intracellular growth in HeLa cells
# Design: species or system HeLa; C. trachomatis total inclusion area by high-content imaging, normalised to DMSO
# Settings: total inclusion area; 28.5 h, 10 µM; inhibitor
# In short: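 High-content images of fixed, Hoechst-stained infected cultures supply inclusion area and count (growth) plus nuclei number (viability), complementing bulk GFP/resorufin fluorescence. MIC determination is unchanged from the primary assay.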
row,SMILES,% of control remaining
1,FC(F)CN1CCN(Cc2ccc(Oc3cnccn3)cc2)CC1 [CBK306399],37.4065
2,CC(C(=O)Nc1ccc(S(N)(=O)=O)cc1)N(C)Cc1ccccc1F (stereo not drawn) [CBK305840],38.8617
3,CCCOCCCNS(=O)(=O)c1ccc(C(C)(C)CC)cc1 [CBK044821],89.6224
4,Cc1ccc(-c2nnc(S)n2/N=C\c2ccccc2OCC(=O)O)cc1 [CBK264408],95.8297
5,COC[C@H]1CCCN1C(=O)[C@@H](C)C1CC[C@@]2(C)CC[C@H](NC(C)=O)[C@@H](C)[C@@H]2[C@H]1O (stereo partly drawn) [CBK289438],119.004
6,O=C(c1ccc(-n2cccn2)nc1)N1CCN(c2ccccc2O)CC1 [CBK297794],84.0916
7,O=C(Nc1ccc(F)cc1)c1ccccc1NS(=O)(=O)c1ccc(C(F)(F)F)cc1[N+](=O)[O-] [CBK045439],84.9714
8,Nc1nc(OCCN2CCCC2=O)cnc1-c1cc(Cl)cc(Cl)c1 [CBK145199],110.069
9,COc1ccc(CCCC(=O)N2CCC(c3c(C(N)=O)sc4ccccc34)C2)cc1C (stereo not drawn) [CBK285848],107.322
10,Nc1nonc1N/N=C/c1ccccc1F [CBK028838],46.0283
11,CCCCNS(=O)(=O)c1ccc(Cl)c(Cl)c1 [CBK044309],77.9347
12,Cn1nc(C2CCN(C(=O)CC3CCCC3)CC2)c2cccnc21 [CBK284943],109.034
13,CCCCc1cc(C[C@@H]2C[C@H](NC(=O)N3CCOCC3)C2(C)C)no1 [CBK289257],134.527
14,O=C(CCc1ccncc1)N1CCCCC1CN1CCCCCC1 (stereo not drawn) [CBK282102],99.7239
15,O=C(c1cccs1)N1CCN(Cc2cc(=O)n3ccsc3n2)CC1 [CBK305872],75.2424
16,Cc1ccccc1C(=O)NCC(=O)Nc1ccc2cc(Br)cnc2n1 [CBK063312],77.7154
17,CCN(CC)C(=O)c1ccccc1NS(=O)(=O)c1ccc(F)cc1 [CBK045414],116.954
18,CC(C)(C)OC(=O)N1CCCC(NCc2ccccn2)CC1 (stereo not drawn) [CBK305128],83.2278
19,CC1=CCN(C(=O)c2cccc(S(=O)(=O)NCC3CCCO3)c2)CC1 (stereo not drawn) [CBK304669],89.3197
20,COc1cc(/C=N/c2ccc3oc(-c4ccc(C(C)(C)C)cc4)nc3c2)ccc1OC(=O)c1ccc(Cl)cc1Cl [CBK261238],98.3524
21,Nc1nc2c(ccn2[C@H]2C[C@@H](O)[C@@H](CO)O2)c(=O)[nH]1 [CBK201238],122.343
